Some of these densities may be calculated back from excess volumes.
Assay: xn = mol fraction of the nth substance listed
Conditions: 100 kPa

CC[n+]1ccn(C)c1.O=S(=O)([N-]S(=O)(=O)C(F)(F)F)C(F)(F)F + CCOC(C)=O
mass density [kg/m3]
Conditions | 298.15 K | 303.15 K | 308.15 K | 313.15 K | 318.15 K | 323.15 K
x2 = 0 | 1518.1 | 1512.9 | – | 1502.8 | 1497.8 | 1492.8
x2 = 0.0433 | 1507.2 | 1502 | 1497 | 1491.9 | – | 1481.9
x2 = 0.0986 | 1494.5 | 1489.4 | 1484.3 | 1479.2 | 1474.1 | 1469.3
x2 = 0.1858 | 1470.2 | 1465 | 1459.9 | 1454.7 | – | 1444.5
x2 = 0.2977 | 1437.7 | – | – | 1421.7 | 1416.5 | 1411.3
x2 = 0.3962 | 1406.5 | – | 1396 | – | – | 1380.4
x2 = 0.5051 | 1360.9 | 1355.8 | 1350.6 | – | – | 1335.1
x2 = 0.5961 | 1309.9 | – | 1299.1 | 1293.7 | 1288.4 | 1283
x2 = 0.6909 | 1243 | 1237.5 | 1232 | 1226.4 | 1220.9 | –
x2 = 0.7974 | 1152.6 | – | 1141.2 | 1135.5 | 1129.9 | 1124.3
x2 = 0.8979 | 1041.9 | – | 1029.8 | 1023.7 | – | 1011.6

CO + CC[n+]1ccn(C)c1.O=S(=O)([N-]S(=O)(=O)C(F)(F)F)C(F)(F)F
x1 = 1
Conditions | mass density [kg/m3]
303.15 K | 782.2
313.15 K | 772.6
323.15 K | 763

CCOC(C)=O + CC[n+]1ccn(C)c1.O=S(=O)([N-]S(=O)(=O)C(F)(F)F)C(F)(F)F
x1 = 1
Conditions | mass density [kg/m3]
298.15 K | 894.5
308.15 K | 882.2
313.15 K | 876
318.15 K | 869.7
323.15 K | 863.4

CC[n+]1ccn(C)c1.O=S(=O)([N-]S(=O)(=O)C(F)(F)F)C(F)(F)F + CO
mass density [kg/m3]
Conditions | x2 = 0 | x2 = 0.0938 | x2 = 0.1965 | x2 = 0.2889 | x2 = 0.4005 | x2 = 0.5088 | x2 = 0.5988 | x2 = 0.6909 | x2 = 0.7961 | x2 = 0.8978
298.15 K | 1518.1 | 1506.6 | 1491.5 | 1475.2 | 1450.3 | 1418.3 | – | 1332.1 | 1245.2 | 1098
303.15 K | 1512.9 | 1501.5 | 1486.5 | 1470.2 | 1445.3 | 1413.3 | 1377.7 | 1327.4 | 1240.8 | 1093.4
308.15 K | 1507.8 | 1496.5 | 1481.7 | 1465.3 | – | 1408.5 | 1372.9 | 1322.7 | 1236.4 | –
313.15 K | 1502.8 | 1491.5 | 1476.8 | 1460.4 | – | – | 1368.1 | – | 1230.6 | 1083.9
318.15 K | 1497.8 | 1486.6 | – | 1455.6 | 1430.8 | 1398.8 | 1363.4 | 1313.9 | 1227.5 | 1079.1
323.15 K | 1492.8 | 1481.7 | 1467.2 | 1450.8 | 1426 | 1394.1 | 1358.8 | 1309.3 | – | 1074.5

From a compilation of properties of binary mixtures (doi:10.1016/j.molliq.2016.09.077)
